# In the supplement of paper PMC8728848:
# This is one part of the list.
# B1: Langerin K313I (Homo sapiens), Q9UJ71 (protein)
# chain: STLNAQIPELKSDLEKASALNTKIRALQGSLENMSKLLKRQNDILQVVSQGWKYFKGNFYYFSLIPKTWYSAEQFCVSRNSHLTSVTSESEQEFLYKTAGGLIYWIGLTKAGMEGDWSWVDDTPFNKVQSARFWIPGEPNNAGNNEHCGNIKAPSLQAWNDAPCDITFLFICKRPYVPSEP
# Columns and labels:
# Assay in all cases: glycan array binding signal (z-score within array); higher = stronger binding
# Conditions in all cases: glycan notation: IUPAC condensed, linker removed
# [1] = biological target: Gal3S(b1-4)Glc
# Outline: (§1)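 Arrays were curated from the Consortium for Functional Glycomics database, 3228 in total, and kept only where the protein sequence was available. Binding is expressed as a within-array Z-score. This score was averaged across arrays of the same protein sequence at different concentrations or buffers and across linkers, and negative values can be read as non-binding.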
# [2] = biological target: Gal3S(b1-4)Glc6S
# Outline: as §1
# [3] = biological target: Gal3S(b1-4)GlcNAc
# Outline: as §1
# [4] = biological target: Gal3S(b1-4)[Fuc(a1-3)]Glc6S
# Outline: as §1
# [5] = biological target: Gal3S(b1-4)[Fuc(a1-3)]GlcNAc
# Outline: as §1
# [6] = biological target: Gal3S(b1-4)[Fuc(a1-3)]GlcNAc6S
# Outline: as §1
# [7] = biological target: Gal3S4S(b1-4)GlcNAc
# Outline: as §1
# [8] = biological target: Gal3S6S(b1-4)GlcNAc
# Outline: as §1
# [9] = biological target: Gal3S6S(b1-4)GlcNAc6S
# Outline: as §1
# [10] = biological target: Gal4S(b1-4)GlcNAc
# Outline: as §1
# [11] = biological target: Gal4S6S(b1-4)GlcNAc
# Outline: as §1
# [12] = biological target: Gal6P(b1-4)GlcNAc
# Outline: as §1
# [13] = biological target: Gal6S(b1-3)GlcNAc
# Outline: as §1
# [14] = biological target: Gal6S(b1-3)GlcNAc6S
# Outline: as §1
# [15] = biological target: Gal6S(b1-4)Glc
# Outline: as §1
# [16] = biological target: Gal6S(b1-4)Glc6S
# Outline: as §1
# [17] = biological target: Gal6S(b1-4)GlcNAc
# Outline: as §1
# [18] = biological target: Gal6S(b1-4)GlcNAc6S
# Outline: as §1
# [19] = biological target: GalNAc(a1-3)Gal
# Outline: as §1
# [20] = biological target: GalNAc(a1-3)GalNAc
# Outline: as §1
# [21] = biological target: GalNAc(a1-3)GalNAc(a1-3)Gal(a1-4)Gal(b1-4)GlcNAc
# Outline: as §1
# [22] = biological target: GalNAc(a1-3)GalNAc(b1-3)Gal(a1-4)Gal(b1-4)Glc
# Outline: as §1
# [23] = biological target: GalNAc(b1-3)Gal
# Outline: as §1
# [24] = biological target: GalNAc(b1-3)Gal(a1-4)Gal(b1-4)GlcNAc
# Outline: as §1
# [25] = biological target: GalNAc(b1-3)Gal(a1-4)Gal(b1-4)GlcNAc(b1-3)Gal(b1-4)Glc
# Outline: as §1
# [26] = biological target: GalNAc(b1-3)Gal(a1-6)Gal(b1-4)Glc
# Outline: as §1
# [27] = biological target: GalNAc(b1-3)GalNAc
# Outline: as §1
# [28] = biological target: GalNAc(b1-3)GlcNAc
# Outline: as §1
# [29] = biological target: GalNAc(b1-4)Gal(b1-4)Glc
# Outline: as §1
# [30] = biological target: GalNAc(b1-4)GlcNAc
# Outline: as §1
# [31] = biological target: GalNAc(b1-4)GlcNAc(b1-2)Man
# Outline: as §1
# [32] = biological target: GalNAc(b1-4)GlcNAc(b1-2)Man(a1-3)[GalNAc(b1-4)GlcNAc(b1-2)Man(a1-6)]Man(b1-4)GlcNAc(b1-4)GlcNAc
# Outline: as §1
# [33] = biological target: GalNAc(b1-4)GlcNAc(b1-3)GalNAc(b1-4)GlcNAc
# Outline: as §1
# [34] = biological target: GalNAc(b1-4)GlcNAc6S
# Outline: as §1
# [35] = biological target: GalNAc(b1-6)GalNAc
# Outline: as §1
# [36] = biological target: GalNAc3S(b1-4)GlcNAc
# Outline: as §1
# [37] = biological target: GalNAc3S(b1-4)GlcNAc3S
# Outline: as §1
# [38] = biological target: GalNAc3S(b1-4)[Fuc(a1-3)]GlcNAc
# Outline: as §1
# [39] = biological target: GalNAc4S6S(b1-4)GlcNAc
# Outline: as §1
# [40] = biological target: GalNAc6S(b1-4)GlcNAc
# Outline: as §1
# [41] = biological target: Glc(a1-4)Glc
# Outline: as §1
# [42] = biological target: Glc(a1-4)Glc(a1-4)Glc(a1-4)Glc
# Outline: as §1
# [43] = biological target: Glc(a1-6)Glc(a1-6)Glc
# Outline: as §1
# [44] = biological target: Glc(a1-6)Glc(a1-6)Glc(a1-6)Glc
# Outline: as §1
# [45] = biological target: Glc(b1-4)Glc
# Outline: as §1
binder,measurement,setting,value
B1,glycan array binding signal (z-score),[1],-0.242
same,glycan array binding signal (z-score),[2],-0.326
same,glycan array binding signal (z-score),[3],-0.351
same,glycan array binding signal (z-score),[4],0.389
same,glycan array binding signal (z-score),[5],-0.353
same,glycan array binding signal (z-score),[6],-0.39
same,glycan array binding signal (z-score),[7],-0.338
same,glycan array binding signal (z-score),[8],-0.296
same,glycan array binding signal (z-score),[9],-0.401
same,glycan array binding signal (z-score),[10],-0.384
same,glycan array binding signal (z-score),[11],-0.392
same,glycan array binding signal (z-score),[12],-0.298
same,glycan array binding signal (z-score),[13],-0.362
same,glycan array binding signal (z-score),[14],-0.386
same,glycan array binding signal (z-score),[15],-0.324
same,glycan array binding signal (z-score),[16],-0.292
same,glycan array binding signal (z-score),[17],-0.376
same,glycan array binding signal (z-score),[18],-0.368
same,glycan array binding signal (z-score),[19],-0.338
same,glycan array binding signal (z-score),[20],-0.399
same,glycan array binding signal (z-score),[21],-0.387
same,glycan array binding signal (z-score),[22],-0.396
same,glycan array binding signal (z-score),[23],-0.374
same,glycan array binding signal (z-score),[24],-0.29
same,glycan array binding signal (z-score),[25],-0.34
same,glycan array binding signal (z-score),[26],-0.302
same,glycan array binding signal (z-score),[27],3.83
same,glycan array binding signal (z-score),[28],-0.336
same,glycan array binding signal (z-score),[29],-0.117
same,glycan array binding signal (z-score),[30],-0.336
same,glycan array binding signal (z-score),[31],-0.387
same,glycan array binding signal (z-score),[32],-0.179
same,glycan array binding signal (z-score),[33],-0.373
same,glycan array binding signal (z-score),[34],-0.383
same,glycan array binding signal (z-score),[35],-0.384
same,glycan array binding signal (z-score),[36],-0.382
same,glycan array binding signal (z-score),[37],-0.348
same,glycan array binding signal (z-score),[38],0.038
same,glycan array binding signal (z-score),[39],-0.408
same,glycan array binding signal (z-score),[40],-0.405
same,glycan array binding signal (z-score),[41],-0.263
same,glycan array binding signal (z-score),[42],-0.025
same,glycan array binding signal (z-score),[43],-0.215
same,glycan array binding signal (z-score),[44],0.03
same,glycan array binding signal (z-score),[45],-0.131
